# Results published in a collection of fitness landscapes (doi:10.1016/j.celrep.2020.107928).
# Whole data set: some 81,000 sequences, median “one-hybrid fitness for binding parS DNA” near -0.17, cut for the highest 2% near 0.51. The list shows a part of the results.
# B1: Caulobacter ParB omega fusion; a variant is named by its letters at X, in order, B8GW30 (parent)
# chain: MESVVVGEPGMSEGRRGLGRGLSALLGEVDAAPAQAPGEQLGGSREAPIEILQRNPDQPRRTFREEDLEDLSNSIREKGVLQPILVRPSPDTAGEYQIVAGERAWRAAQRAGLKTVPIMVRELDDLAVLEIGIIENVQRADLNVLEEALSYKVLMEKFERTQENIAQTIGKSXSHVANXMRLLXLPDEVQSYLVSGELTAXHARAIAAAADPVALAKQIIEGGLSVRETEALARKAPNLSAGKSKGGRPPRVKDTDTQALESDLSSVLGLDVSIDHRGSTGTLTITYATLEQLDDLCNRLTRGI
# Variants of: B1
# Experiment: one-hybrid fitness for binding parS DNA (scaled: cognate 1, non-cognate 0); higher = stronger binding
# Conditions: with parS DNA site
# How it was run: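 Fitness here means the log change in variant-to-wild-type read ratio between plasmids sequenced before and after selection. That scale was set so cognate equals 1 and non-cognate equals 0. The selection was a bacterial one-hybrid screen of Caulobacter ParB libraries, four specificity codons randomised, in E. coli USO carrying a HIS3 reporter with the site 19 bp from the promoter, grown 48 hours at 37°C on M9-minus-histidine with 0.1 mM IPTG and 5 mM 3-AT.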
row,Variant,one-hybrid fitness for binding parS DNA
1,QKAL,≤ 0.2
2,HYCW,≤ 0.2
3,RMGD,≤ 0.2
4,KYSL,≤ 0.2
5,TAAQ,≤ 0.2
6,ERVS,≤ 0.2
7,SPYA,≤ 0.2
8,RPRR,≤ 0.2
9,PWKN,≤ 0.2
10,QVII,≤ 0.2
11,YIER,≤ 0.2
12,PINM,≤ 0.2
13,FTMS,≤ 0.2
14,QLIW,≤ 0.2
15,HNYT,≤ 0.2
16,FCDL,0.223
17,QDER,≤ 0.2
18,NGRS,≤ 0.2
19,TTVG,≤ 0.2
20,APPI,≤ 0.2
21,SDDY,≤ 0.2
22,QTLG,≤ 0.2
23,YDTG,≤ 0.2
24,QEDF,≤ 0.2
25,SCWA,≤ 0.2

row,Variant,one-hybrid fitness for binding parS DNA
1,RNGS,0.873
2,GWKR,≤ 0.2
3,FEGR,≤ 0.2
4,TVPN,≤ 0.2
5,EFYG,≤ 0.2
6,QGLP,≤ 0.2
7,SPTE,≤ 0.2
8,QHIW,≤ 0.2
9,YAQT,≤ 0.2
10,RHPP,≤ 0.2
11,GDCL,≤ 0.2
12,SDHY,≤ 0.2
13,VHKF,≤ 0.2
14,WESS,≤ 0.2
15,KIVV,≤ 0.2
16,VTVR,≤ 0.2
17,HYAN,≤ 0.2
18,GKRN,≤ 0.2
19,ETAS,≤ 0.2
20,YQKG,≤ 0.2
21,SYAS,≤ 0.2
22,PGEC,≤ 0.2
23,VMVY,≤ 0.2
24,VKHY,≤ 0.2
25,GDDI,≤ 0.2

row,Variant,one-hybrid fitness for binding parS DNA
1,DDDR,≤ 0.2
2,CATL,≤ 0.2
3,GMCC,≤ 0.2
4,NRFT,≤ 0.2
5,GALI,≤ 0.2
6,GDMM,≤ 0.2
7,IITV,≤ 0.2
8,QYKE,≤ 0.2
9,QQVP,≤ 0.2
10,LQLG,≤ 0.2
11,QYFA,≤ 0.2
12,MLDM,≤ 0.2
13,AWDS,≤ 0.2
14,MHRI,≤ 0.2
15,QQHI,≤ 0.2
16,QVRV,≤ 0.2
17,SMGM,≤ 0.2
18,TCGV,≤ 0.2
19,PDMF,≤ 0.2
20,RGIA,0.251
21,AHGT,≤ 0.2
22,VFPG,≤ 0.2
23,PVNQ,≤ 0.2
24,WASC,≤ 0.2
25,ADVW,≤ 0.2

row,Variant,one-hybrid fitness for binding parS DNA
1,RVQW,0.266
2,HCHA,≤ 0.2
3,RHVD,≤ 0.2
4,WMSV,≤ 0.2
5,HSYA,≤ 0.2
6,MSVK,≤ 0.2
7,QHGN,≤ 0.2
8,LFSW,≤ 0.2
9,FRPI,≤ 0.2
10,LGAE,≤ 0.2
11,HTNY,≤ 0.2
12,RQTI,≤ 0.2
13,YCHI,≤ 0.2
14,NLDF,≤ 0.2
15,QLCM,≤ 0.2
16,LNHR,≤ 0.2
17,NVHE,≤ 0.2
18,SYNF,≤ 0.2
19,AYMG,≤ 0.2
20,SSGY,≤ 0.2
21,QMNG,≤ 0.2
22,PIQT,≤ 0.2
23,HWLS,≤ 0.2
24,AKMP,≤ 0.2
25,VIAG,≤ 0.2

row,Variant,one-hybrid fitness for binding parS DNA
1,LRPC,≤ 0.2
2,GTNI,≤ 0.2
3,KTCY,≤ 0.2
4,LDAC,≤ 0.2
5,TWGR,≤ 0.2
6,YRLI,≤ 0.2
7,TLLC,≤ 0.2
8,GCTE,≤ 0.2
9,NQHC,≤ 0.2
10,NGIL,≤ 0.2
11,IRYR,≤ 0.2
12,ETPM,≤ 0.2
13,RDRT,≤ 0.2
14,HGDY,≤ 0.2
15,AKSR,≤ 0.2
16,LAGQ,≤ 0.2
17,SAQT,≤ 0.2
18,QNRT,≤ 0.2
19,PMLY,≤ 0.2
20,QDNT,≤ 0.2
21,WVRT,≤ 0.2
22,NPVF,≤ 0.2
23,KNQF,≤ 0.2
24,AMLE,≤ 0.2
25,SNRY,≤ 0.2

row,Variant,one-hybrid fitness for binding parS DNA
1,REER,≤ 0.2
2,PYNG,≤ 0.2
3,DYNH,≤ 0.2
4,QMRK,≤ 0.2
5,RSND,≤ 0.2
6,RSPW,≤ 0.2
7,WSFS,≤ 0.2
8,DREG,≤ 0.2
9,WFGR,≤ 0.2
10,DMHW,≤ 0.2
11,ITKV,≤ 0.2
12,SERR,≤ 0.2
13,LFTY,≤ 0.2
14,PDEL,≤ 0.2
15,YDPY,≤ 0.2
16,SFCT,≤ 0.2
17,AASM,≤ 0.2
18,PTYK,≤ 0.2
19,RCCA,0.677
20,YNGP,≤ 0.2
21,GELR,≤ 0.2
22,WCST,≤ 0.2
23,YTYR,≤ 0.2
24,NEMF,≤ 0.2
25,HLED,≤ 0.2

row,Variant,one-hybrid fitness for binding parS DNA
1,NYIE,≤ 0.2
2,HSPT,≤ 0.2
3,RRSV,≤ 0.2
4,NQDG,≤ 0.2
5,HANF,≤ 0.2
6,CAVY,≤ 0.2
7,DDHT,≤ 0.2
8,PFPV,≤ 0.2
9,QSPY,≤ 0.2
10,LNAF,≤ 0.2
11,QPHK,≤ 0.2
12,DANY,≤ 0.2
13,YPCF,≤ 0.2
14,KSNR,≤ 0.2
15,GIET,≤ 0.2
16,YKEK,≤ 0.2
17,FDLG,≤ 0.2
18,CPAD,≤ 0.2
19,MGEF,≤ 0.2
20,WANF,≤ 0.2
21,PGTG,≤ 0.2
22,QYSP,≤ 0.2
23,AGWR,≤ 0.2
24,AAAI,≤ 0.2
25,NPHY,≤ 0.2

row,Variant,one-hybrid fitness for binding parS DNA
1,QEDE,≤ 0.2
2,RVMS,0.997
3,RFDT,0.693
4,PACG,≤ 0.2
5,MMTF,≤ 0.2
6,QSVK,≤ 0.2
7,TQCV,≤ 0.2
8,MQGT,≤ 0.2
9,QGKC,≤ 0.2
10,GPTH,≤ 0.2
11,GWYS,≤ 0.2
12,YKKF,≤ 0.2
13,SFRF,≤ 0.2
14,HQSA,≤ 0.2
15,GRQG,≤ 0.2
16,RQPA,≤ 0.2
17,DAEV,≤ 0.2
18,AATN,≤ 0.2
19,NFPR,≤ 0.2
20,VIML,≤ 0.2
